For test [1], the system named is RAW-Dual. The test can be described thus: IRF Lucia reporter activity, fold change vs agonist alone; cytotoxicity flag (confluency mask): not cytotoxic; higher = enhanced IRF activity. Put shortly: (§1)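 Library stock was pin-tooled at 50 nL into 384-well plates of RAW-Dual macrophages (50,000 cells/well, DMEM), followed 1 h later by a PRR agonist, and the cells were kept at 37 °C, 5% CO2. Supernatant collected after 20 hours was read for IRF by QuantiLuc luminescence and for NF-κB by QuantiBlue absorbance at 620 nm. Reporter activity is fold change over agonist-alone wells, and a well counted as cytotoxic when its IncuCyte confluency was below 70% of agonist controls in both mask sets.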

Test [2] has as its system RAW-Dual. The test can be described thus: IRF Lucia reporter activity, fold change vs agonist alone; higher = enhanced IRF activity. The following applies: library stock concentration (final ~1000-fold dilution): 10 mM; cytotoxicity flag (confluency mask): not cytotoxic; agonist: MPLA (TLR4) […]. The procedure, abridged: as §1
Test [3] concerns RAW-Dual. The test can be described thus: IRF Lucia reporter activity, fold change vs agonist alone; cytotoxicity flag (confluency mask): cytotoxic (confluency <70% of control); higher = enhanced IRF activity. Put shortly: as §1
[4] abbreviates: agonist: 3'3'-cGAMP (STING) 10 ug/mL.

Several values for one entry are separate records, joined by “and”; a condition that tells them apart may be missing. Identical values can stand only once. Over roughly 2,900 compounds, “IRF Lucia reporter activity, fold change vs agonist alone” has its median near 0.9; the highest 2% begin near 2.8. The list shows a part of the results.

Take `O=C(O)CCN1C(=O)/C(=C2/C(=O)Nc3ccc(Cl)cc32)SC1=S` (library stock concentration (final ~1000-fold dilution): 10 mM): the entries for the “IRF Lucia reporter activity” value in test [1] (setting [4]) and in test [1] (agonist: LPS (TLR4) 0.1 ug/mL) were 1.05 and 0.398, respectively.
Regarding `O=C(O)c1cc(C(=O)O)c(C(=O)N(Cc2cccc(Oc3ccccc3)c2)C2CCCc3ccccc32)cc1C(=O)O` (stereo unspecified) (library stock concentration (final ~1000-fold dilution): 10 mM), the “IRF Lucia reporter activity” value in test [1] (setting [4]) was 0.791; in test [1] (agonist: LPS (TLR4) 0.1 ug/mL), 1.03.
`COc1cc(Nc2ncc3c(n2)-c2ccc(Cl)cc2C(c2c(F)cccc2OC)=NC3)ccc1C(=O)O`: the “IRF Lucia reporter activity” value in test [2] was 1.26.
Consider `COc1cc(Nc2ncc3c(n2)-c2ccc(Cl)cc2C(c2c(F)cccc2OC)=NC3)ccc1C(=O)O` (library stock concentration (final ~1000-fold dilution): 10 mM), for which the “IRF Lucia reporter activity” value in test [1] (setting [4]) amounted to 1.04; in test [1] (agonist: LPS (TLR4) 0.1 ug/mL) it was 1.22.
For `Cc1cccc(Nc2nc(NC3CCCCC3N)ncc2C(N)=O)c1.Cl.Cl` (stereo unspecified) (library stock concentration (final ~1000-fold dilution): 10 mM), the entries for the “IRF Lucia reporter activity” value in test [3] (setting [4]) and in test [3] (agonist: LPS (TLR4) 0.1 ug/mL) were 0.0182 and 0.0241, respectively.
On to `CCc1ccc(/C=C2/SC(=S)NC2=O)cc1`, for which, in test [2], the “IRF Lucia reporter activity” value came out at 0.933.
Consider `CCc1ccc(/C=C2/SC(=S)NC2=O)cc1` (library stock concentration (final ~1000-fold dilution): 10 mM), for which the figures for the “IRF Lucia reporter activity” value in test [1] (setting [4]) and in test [1] (agonist: LPS (TLR4) 0.1 ug/mL) were 0.59 and 0.406, respectively.
Turning to `Cc1ccc(Nc2nccc(N(C)c3ccc4c(C)n(C)nc4c3)n2)cc1S(N)(=O)=O` (library stock concentration (final ~1000-fold dilution): 10 mM), the “IRF Lucia reporter activity” value in test [1] (setting [4]) worked out at 0.475; in test [1] (agonist: LPS (TLR4) 0.1 ug/mL), 0.627.
Take `Cc1ccc(Nc2nccc(N(C)c3ccc4c(C)n(C)nc4c3)n2)cc1S(N)(=O)=O`: in test [2], the “IRF Lucia reporter activity” value was determined as 1.08.
With `CN1CCc2c(c3ccccc3n2Cc2ccc(C(=O)NO)cc2)C1.Cl`, the “IRF Lucia reporter activity” value in test [2] was 5.65.
As for `CN1CCc2c(c3ccccc3n2Cc2ccc(C(=O)NO)cc2)C1.Cl` (library stock concentration (final ~1000-fold dilution): 10 mM), the “IRF Lucia reporter activity” value turned out to be 1.18 in test [1] (setting [4]) and 4.79 in test [1] (agonist: LPS (TLR4) 0.1 ug/mL).
With `Cc1cc(Nc2ncnc3ccc(NC4=NC(C)(C)CO4)cc23)ccc1Oc1ccn2ncnc2c1` (library stock concentration (final ~1000-fold dilution): 10 mM), the results for the “IRF Lucia reporter activity” value in test [1] (setting [4]) and in test [1] (agonist: LPS (TLR4) 0.1 ug/mL) were 0.272 and 0.57, respectively.
Taken in the same sequence, the figures for `O=C(c1c(F)ccc(NS(=O)(=O)N2CCC(F)C2)c1F)c1c[nH]c2ncc(-c3cnc(C4CC4)nc3)cc12` (stereo unspecified) (library stock concentration (final ~1000-fold dilution): 10 mM) were 0.123 and 0.671.
In the same order, the values of `O=C(NC1=CC(=O)[C@@H]2O[C@@H]2[C@@H]1O)c1ccccc1O` (library stock concentration (final ~1000-fold dilution): 10 mM) are 0.0693 and 0.231.
In the case of `Cc1ccc(C(=O)Nc2cccc(C(F)(F)F)c2)cc1Nc1nc(-c2cccnc2)nc2c1cnn2C`, the “IRF Lucia reporter activity” value in test [2] was 1.46.
For `Cc1ccc(C(=O)Nc2cccc(C(F)(F)F)c2)cc1Nc1nc(-c2cccnc2)nc2c1cnn2C` (library stock concentration (final ~1000-fold dilution): 10 mM), the “IRF Lucia reporter activity” value in test [1] (setting [4]) worked out at 1.03; in test [1] (agonist: LPS (TLR4) 0.1 ug/mL), 1.27.
On to `Cc1noc(-c2ccc(CSCCC(=O)O)cc2)c1NC(=O)OC(C)c1ccccc1Cl` (stereo unspecified) (library stock concentration (final ~1000-fold dilution): 10 mM), for which the entries for the “IRF Lucia reporter activity” value in test [1] (setting [4]) and in test [1] (agonist: LPS (TLR4) 0.1 ug/mL) were 0.984 and 0.82, respectively.
With `Cc1noc(-c2ccc(CSCCC(=O)O)cc2)c1NC(=O)OC(C)c1ccccc1Cl` (stereo unspecified), the “IRF Lucia reporter activity” value in test [2] is 1.3.
As for `COc1ccc(-c2cc(=O)c3c(OC)c(OC)c(OC)c(OC)c3o2)cc1OC`, in test [2], the “IRF Lucia reporter activity” value was found to be 0.77.
On to `COc1ccc(-c2cc(=O)c3c(OC)c(OC)c(OC)c(OC)c3o2)cc1OC` (library stock concentration (final ~1000-fold dilution): 10 mM), for which the “IRF Lucia reporter activity” value is 0.808 and 0.811 in test [1] (setting [4]); 0.729 and 0.735 in test [1] (agonist: LPS (TLR4) 0.1 ug/mL).
Regarding `COc1ccc(CNCc2cccc3ccccc23)cc1.Cl`, in test [2], the “IRF Lucia reporter activity” value stood at 1.35.
`COc1ccc(CNCc2cccc3ccccc23)cc1.Cl` (library stock concentration (final ~1000-fold dilution): 10 mM): the “IRF Lucia reporter activity” value was found to be 1.12 in test [1] (setting [4]) and 1.19 in test [1] (agonist: LPS (TLR4) 0.1 ug/mL).
Turning to `C=C1C(CO)C(O)CC1n1cnc2c(=O)nc(N)[nH]c21.O` (stereo unspecified), the “IRF Lucia reporter activity” value in test [2] is 1.07.
For `C=C1C(CO)C(O)CC1n1cnc2c(=O)nc(N)[nH]c21.O` (stereo unspecified) (library stock concentration (final ~1000-fold dilution): 10 mM), the “IRF Lucia reporter activity” value in test [1] (setting [4]) was determined as 0.941; in test [1] (agonist: LPS (TLR4) 0.1 ug/mL) it was 1.24.
Consider `CNC(=O)c1cccc(-c2ccc3c(N4CCOCC4C)nc(N4CCOCC4C)nc3n2)c1` (stereo unspecified) (library stock concentration (final ~1000-fold dilution): 10 mM), for which the “IRF Lucia reporter activity” value in test [1] (setting [4]) worked out at 0.435; in test [1] (agonist: LPS (TLR4) 0.1 ug/mL), 0.742.
`CNC(=O)c1cccc(-c2ccc3c(N4CCOCC4C)nc(N4CCOCC4C)nc3n2)c1` (stereo unspecified): the “IRF Lucia reporter activity” value in test [2] was found to be 0.572.
Consider `CC(C)=CCC[C@](C)(O)[C@H]1CC[C@]2(C)[C@@H]3CCC4C(C)(C)[C@@H](O)CC[C@]4(C)[C@H]3C[C@@H](O)[C@@]12C` (stereo partly specified) (library stock concentration (final ~1000-fold dilution): 10 mM), for which the “IRF Lucia reporter activity” value in test [1] (setting [4]) stood at 0.885; in test [1] (agonist: LPS (TLR4) 0.1 ug/mL) it was 1.4.
Taken in the same sequence, the figures for `N#Cc1c(Oc2ccc(F)c(NC(=O)Cc3cccc(C(F)(F)F)c3)c2)ccc2nc(NC(=O)C3CC3)sc12` (library stock concentration (final ~1000-fold dilution): 10 mM) were 0.838 and 0.681.

For the origin of these results see the supplement of paper PMC10037445.
